From the supplement of paper PMC4967469 come the findings set out here.

For orientation: IC50 means the midpoint of a concentration-inhibition curve.

What all share (assay): Viability of human cancer cell lines after 72 h of drug (GDSC screen)
Compound in one test: CC1=C(/C=C/C(C)=C/C=C/C(C)=C/C(=O)O)C(C)(C)CCC1 [Tretinoin]
The note with it: top dose 10 µM; top dose inferred. The procedure:
(§1)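 Human cancer cell lines in 384-well plates, medium with 10% serum, drug for 72 h over a 256-fold dose range (nine 2-fold or five 4-fold steps up to the top dose). Adherent lines were fixed and stained with the nucleic acid dye Syto60, suspension lines read with resazurin; signal relative to control wells, capped at 0 and 100%. One two-parameter sigmoid per drug and line, fitted in a mixed model over all curves with the slope shared within a line.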

Compound in the next test: CCn1c(-c2nonc2N)nc2c(C#CC(C)(C)O)ncc(OC[C@H]3CCCNC3)c21 [GSK690693]
The note with it: top dose 10.24 µM; top dose inferred. The procedure:
as §1

Compound in a further test: COc1cc2c(NC3CCN(C(C)C)CC3)nc(C3CCCCC3)nc2cc1OCCCN1CCCC1 [UNC0638]
The procedure:
as §1

Compound in the next test: COc1ccc(N(C(=O)Oc2c(C)cccc2C)c2ccnc(Nc3ccc(N4CCN(C)CC4)cc3)n2)c(OC)c1 [WH-4-023]
Particulars: top dose 5.12 µM; top dose inferred. The procedure: as §1

Compound in another test: Cc1cccc(-c2[nH]c(C(C)(C)C)nc2-c2ccc3c(c2)OCO3)n1 [SB-505124]
The note with it: top dose 10 µM; top dose inferred. The procedure: as §1

Compound in the next test: O=C(NCCCNc1nc(Nc2cccc(NC(=O)N3CCCC3)c2)ncc1I)c1cccs1 [BX-795]
The note with it: top dose 5 µM; top dose inferred. The procedure:
as §1

Compound in the next test: Oc1cccc(-c2nc(N3CCOCC3)c3oc4ncccc4c3n2)c1 [PI-103]
The note with it: top dose 10.24 µM. The procedure:
as §1

Setting [1] is: top dose 20 µM, screen: GDSC drug entry 1236, top dose inferred.
Setting [2] is: top dose 40 µM, screen: GDSC drug entry 245.

Lines with a small IC50 respond at low doses; where the fit passes the top or lowest dose, that dose stands as a limit. For AUC the same curve is integrated over the 256-fold range of doses and scaled to a fraction: 1 means no effect, lower means more sensitive. For some assays here: A top dose marked as inferred was derived from the fitted curves, not read from the paper. For some assays here: An entry number marks a drug with two screens in the source, which often give different values. Bounds are passed on as bounds.

Turning to LB831-BLC (bladder, adherent), the AUC with Tretinoin turned out to be 0.981; in the test with GSK690693, 0.985; with UNC0638 (setting [1]), 0.899; with UNC0638 (setting [2]) it was 0.891; with WH-4-023 it was 0.344; in the test with SB-505124, 0.97. Also, the results for the AUC in the test with BX-795 and in the test with PI-103 were 0.908 and 0.762, respectively. In addition, the concentration for half-maximal inhibition (IC50) with Tretinoin is more than 10 µM; with GSK690693 it was more than 10.2 µM; in the test with UNC0638 (setting [1]), more than 20 µM; in the test with UNC0638 (setting [2]), more than 40 µM; with WH-4-023, 0.117 µM; with SB-505124, more than 10 µM. Also, the 50% inhibitory concentration (IC50) is more than 5 µM in the test with BX-795 and 3.72 µM in the test with PI-103.

In the case of LB1047-RCC (kidney, adherent), the AUC with Tretinoin was 0.849; in the test with GSK690693 it was 0.973; in the test with UNC0638 (setting [1]), 0.828; with UNC0638 (setting [2]), 0.887; in the test with WH-4-023, 0.341; with SB-505124, 0.933. For the same cell line, the AUC in the test with BX-795 was 0.715; with PI-103 it was 0.901. Besides, the IC50 in the test with Tretinoin is 8.99 µM; with GSK690693, more than 10.2 µM; in the test with UNC0638 (setting [1]) it was 14.6 µM; with UNC0638 (setting [2]), more than 40 µM; with WH-4-023 it was 0.109 µM; with SB-505124 it was more than 10 µM. Also, the IC50 with BX-795 was 1.38 µM; with PI-103, more than 10.2 µM.

Take LB2518-MEL (melanoma, adherent): the AUC with Tretinoin stood at 0.909; in the test with GSK690693, 0.987; with UNC0638 (setting [1]) it was 0.985; with UNC0638 (setting [2]), 0.861; in the test with WH-4-023, 0.235; with SB-505124, 0.983. The AUC with BX-795 is 0.985; with PI-103, 0.987. The IC50 with Tretinoin was more than 10 µM; with GSK690693, more than 10.2 µM; in the test with UNC0638 (setting [1]) it was more than 20 µM; with UNC0638 (setting [2]), 37 µM; with WH-4-023, 0.0519 µM; with SB-505124, more than 10 µM. Moreover, the concentration for half-maximal inhibition (IC50) in the test with BX-795 is more than 5 µM; with PI-103 it was more than 10.2 µM.

As for “LC4-1 (lymphoblastic leukaemia, suspension)”, the AUC with Tretinoin stood at 0.981; with GSK690693, 0.759; in the test with UNC0638 (setting [1]), 0.808; in the test with UNC0638 (setting [2]) it was 0.524; in the test with WH-4-023 it was 0.949; with SB-505124, 0.981. Besides, the AUC was 0.923 in the test with BX-795 and 0.203 in the test with PI-103. Moreover, the IC50 with Tretinoin was more than 10 µM; with GSK690693 it was 3.93 µM; with UNC0638 (setting [1]), 11.7 µM; with UNC0638 (setting [2]), 2.93 µM; with WH-4-023, more than 5.12 µM; in the test with SB-505124, more than 10 µM. For the same cell line, the 50% inhibitory concentration (IC50) was more than 5 µM with BX-795 and 0.0757 µM in the test with PI-103.

For the cell line “LOUCY (T-cell lymphoblastic leukaemia, suspension)”, the AUC came to 0.73 with Tretinoin; 0.162 in the test with GSK690693; 0.75 in the test with UNC0638 (setting [1]); 0.756 in the test with UNC0638 (setting [2]); 0.991 in the test with WH-4-023; 0.991 in the test with SB-505124. For the same cell line, the AUC is 0.793 with BX-795 and 0.4 with PI-103. Further, the IC50 with Tretinoin was 2.42 µM; with GSK690693, 0.0792 µM; with UNC0638 (setting [1]) it was 5.52 µM; with UNC0638 (setting [2]) it was 11.4 µM; with WH-4-023 it was more than 5.12 µM; in the test with SB-505124 it was more than 10 µM. In addition, the half-maximal inhibitory concentration (IC50) with BX-795 amounted to 1.83 µM; with PI-103 it was 0.359 µM.

Turning to LP-1 (myeloma, suspension), the AUC in the test with Tretinoin was 0.99; with GSK690693, 0.967; with UNC0638 (setting [1]), 0.971; with UNC0638 (setting [2]) it was 0.682; with WH-4-023, 0.993; in the test with SB-505124 it was 0.989. In addition, the AUC with BX-795 was 0.974; with PI-103, 0.226. The IC50 is more than 10 µM with Tretinoin; more than 10.2 µM with GSK690693; more than 20 µM with UNC0638 (setting [1]); 7.29 µM in the test with UNC0638 (setting [2]); more than 5.12 µM with WH-4-023; more than 10 µM in the test with SB-505124. Also, the IC50 in the test with BX-795 was more than 5 µM; in the test with PI-103 it was 0.123 µM.

With LS-411N (large intestine, adherent), the AUC came out at 0.963 with Tretinoin; 0.749 in the test with GSK690693; 0.794 with UNC0638 (setting [1]); 0.581 in the test with UNC0638 (setting [2]); 0.908 in the test with WH-4-023; 0.978 in the test with SB-505124. In addition, the AUC in the test with BX-795 was 0.917; with PI-103, 0.486. Also, the half-inhibitory concentration (IC50) with Tretinoin is more than 10 µM; in the test with GSK690693, 3.95 µM; with UNC0638 (setting [1]) it was 11.5 µM; in the test with UNC0638 (setting [2]), 4.37 µM; in the test with WH-4-023 it was more than 5.12 µM; with SB-505124, more than 10 µM. The IC50 with BX-795 was more than 5 µM; in the test with PI-103, 0.582 µM.

As for LS-513 (large intestine, adherent), the AUC in the test with Tretinoin is 0.987; with GSK690693 it was 0.912; with UNC0638 (setting [1]), 0.831; with UNC0638 (setting [2]), 0.779; with WH-4-023, 0.987; with SB-505124 it was 0.986. Moreover, the AUC in the test with BX-795 worked out at 0.936; with PI-103, 0.726. In addition, the 50% inhibitory concentration (IC50) with Tretinoin was more than 10 µM; with GSK690693 it was more than 10.2 µM; with UNC0638 (setting [1]), 13.3 µM; with UNC0638 (setting [2]) it was 17 µM; with WH-4-023, more than 5.12 µM; with SB-505124 it was more than 10 µM. Moreover, the figures for the 50% inhibitory concentration (IC50) with BX-795 and with PI-103 were more than 5 µM and 2.89 µM, respectively.
